These are yes or no findings as the source states them, for the method shown. Binding seen in cells or lysates may run through a third protein. Some binding calls cover weakened binding; strength is not graded here. For part of these data: Tags and fused reporters may be left off the sequences shown.

The chains behind the UniProt entries cited, without tags or fusion partners.
UniProt O80480: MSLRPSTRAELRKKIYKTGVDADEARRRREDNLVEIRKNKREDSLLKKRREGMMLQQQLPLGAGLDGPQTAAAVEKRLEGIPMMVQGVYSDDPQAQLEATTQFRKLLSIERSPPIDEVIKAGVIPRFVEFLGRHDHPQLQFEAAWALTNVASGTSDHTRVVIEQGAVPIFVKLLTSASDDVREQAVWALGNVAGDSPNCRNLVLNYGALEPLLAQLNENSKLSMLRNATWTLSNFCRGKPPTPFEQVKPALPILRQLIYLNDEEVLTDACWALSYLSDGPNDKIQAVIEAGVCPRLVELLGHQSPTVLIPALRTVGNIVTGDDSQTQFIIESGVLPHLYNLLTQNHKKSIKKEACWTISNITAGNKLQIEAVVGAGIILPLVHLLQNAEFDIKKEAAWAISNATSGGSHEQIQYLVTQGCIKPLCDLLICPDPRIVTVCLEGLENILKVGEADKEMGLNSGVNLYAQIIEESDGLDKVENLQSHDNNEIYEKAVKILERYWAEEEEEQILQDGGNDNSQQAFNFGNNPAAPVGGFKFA
UniProt O04294: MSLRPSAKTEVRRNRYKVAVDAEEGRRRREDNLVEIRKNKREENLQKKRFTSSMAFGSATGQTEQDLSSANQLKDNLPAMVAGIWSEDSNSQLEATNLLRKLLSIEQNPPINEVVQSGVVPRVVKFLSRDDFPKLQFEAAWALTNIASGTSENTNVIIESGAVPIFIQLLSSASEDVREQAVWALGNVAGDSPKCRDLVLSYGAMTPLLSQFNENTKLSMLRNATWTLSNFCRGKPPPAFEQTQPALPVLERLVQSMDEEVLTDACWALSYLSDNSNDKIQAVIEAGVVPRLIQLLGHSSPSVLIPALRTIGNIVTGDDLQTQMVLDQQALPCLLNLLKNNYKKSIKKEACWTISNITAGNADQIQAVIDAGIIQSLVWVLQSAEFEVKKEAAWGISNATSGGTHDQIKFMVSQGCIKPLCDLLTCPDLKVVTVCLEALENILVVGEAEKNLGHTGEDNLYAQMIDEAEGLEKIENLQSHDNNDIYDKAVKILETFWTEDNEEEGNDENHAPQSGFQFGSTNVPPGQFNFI

Drawing on article PMC6748027, this text covers binding for three molecules.

In test [1] the target is IMPA4-cYFP (Arabidopsis thaliana) (UniProt O80480). Nature of the test: split reporter; BiFC: nYFP and cYFP fusions co-expressed transiently in N. benthamiana leaves; confocal microscopy two days after infiltration.
Test [2] addresses IMPA3-cYFP (Arabidopsis thaliana) (UniProt O04294). The description is as above.
Test [3] deals with T1, IMPA6-cYFP (Arabidopsis thaliana) (UniProt Q9FWY7).
T1 sequence: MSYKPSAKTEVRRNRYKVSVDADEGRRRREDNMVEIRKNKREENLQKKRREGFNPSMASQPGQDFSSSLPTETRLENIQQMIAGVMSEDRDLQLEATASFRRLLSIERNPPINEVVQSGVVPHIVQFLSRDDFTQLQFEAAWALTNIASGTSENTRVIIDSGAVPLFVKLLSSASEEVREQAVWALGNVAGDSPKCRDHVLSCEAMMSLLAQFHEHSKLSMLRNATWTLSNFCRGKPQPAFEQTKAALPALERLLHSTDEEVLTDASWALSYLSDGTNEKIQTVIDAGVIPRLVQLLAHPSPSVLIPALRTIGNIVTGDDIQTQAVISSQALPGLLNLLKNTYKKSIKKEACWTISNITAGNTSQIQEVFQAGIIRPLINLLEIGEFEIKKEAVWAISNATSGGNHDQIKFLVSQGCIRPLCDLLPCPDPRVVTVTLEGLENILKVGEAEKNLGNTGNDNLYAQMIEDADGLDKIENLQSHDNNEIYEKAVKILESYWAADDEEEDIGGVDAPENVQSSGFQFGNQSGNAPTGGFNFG
The test is described as above.

Test [4] concerns the target GFP-IMPA4 (Arabidopsis thaliana) (UniProt O80480). Nature of the test: co-IP; extracts of N. benthamiana leaves infiltrated with the constructs; GFP-Trap agarose beads, 4 °C, 3 h; 50 mM Tris-HCl pH 7.5, 150 mM NaCl, 2 mM DTT, washes with 0.5% TX-100; immunoblot with anti-GFP and anti-RFP. In general terms: A western blot detects proteins with antibodies after separation by electrophoresis.

Test [5] has as its target T2, GFP-IMPA6 (Arabidopsis thaliana) (UniProt Q9FWY7).
T2 sequence: T1 sequence
The description is as above.

B1: nYFP-IYO_(ΔNLSAB) (protein, UniProt Q8GYU3)
chain: MEQSSGRVNPEQPNNVLASLVGSIVEKGISENKPPSKPLPPRPSLLSFPVARHRSHGPHLAPVGSSIAQPKDYNDDQEEEEAEERFMNADSIAAFAKPLQRKEKKDMDLGRWKDMVSGDDPASTHVPQQSRKLKIIETRPPYVASADAATTSSNTLLAARASDQREFVSDKAPFIKNLGTKERVPLNASPPLAVSNGLGTRHASSSLESDIDVENHAKLQTMSPDEIAEAQAELLDKMDPALLSILKKRGEAKSVQGVSITDETAKNSRTEGHFVTPKVMAIPKEKSVVQKPGIAQGFVWDAWTERVEAARDLRFSFDGNVVEEDVVSPAETGGKWSGVESAAERDFLRTEGDPGAAGYTIKEAIALARSVIPGQRCLALHLLASVLDKALNKLCQSRIGYAREEKDKSTDWEAIWAYALGPEPELVLALRMALDDNHASVVIACVKVIQCLLSCSLNENFFNILENMGPHGKDIFTASVFRSKPEIDLGFLRGCYWKYSAKPSNIVAFREEILDDGTEDTDTIQKDVFVAGQDVAAGLVRMDILPRIYHLLETEPTAALEDSIISVTIAIARHSPKCTTAILKYPKFVQTIVKRFQLNKRMDVLSSQINSVRLLKVLARYDQSTCMEFVKNGTFNAVTWHLFQFTSSLDSWVKLGKQNCKLSSTLMVEQLRFWKVCIHSGCCVSRFPELFPALCLWLSCPSFEKLREKNLISEFTSVSNEAYLVLEAFAETLPNMYSQNIPRNESGTWDWSYVSPMIDSALSWITLAPQLLKWEKGIESVSVSTTTLLWLYSGVMRTISKVLEKISAEGEEEPLPWLPEFVPKIGLAIIKHKLLSFSVADVSRFGKDSSRCSSFMEYLCFLRERSQDDELALASVNCLHGLTRTIVSIQNLIESARSKMKAPHQVSISTGDESVLANGILAESLAELTSVSCSFRDSVSSEWPIVQSIELHKRGGLAPGVGLGWGASGGGFWSTRVLLAQAGAGLLSLFLNISLSDSQNDQGSVGFMDKVNSALAMCLIAGPRDYLLVERAFEYVLRPHALEHLACCIKSNKKNISFEWECSEGDYHRMSSMLASHFRHRWLQQKGRSIAEEGVSGVRKGTVGLETIHEDGEMSNSSTQDKKSDSSTIEWAHQRMPLPPHWFLSAISAVHSGKTSTGPPESTELLEVAKAGVFFLAGLESSSGFGSLPSPVVSVPLVWKFHALSTVLLVGMDIIEDKNTRNLYNYLQELYGQFLDEARLNHRDTELLRFKSDIHENYSTFLEMVVEQYAAVSYGDVVYGRQVSVYLHQCVEHSVRLSAWTVLSNARVLELLPSLDKCLGEADGYLEPVEENEAVLEAYLKSWTCGALDRAATRGSVAYTLVVHHFSSLVFCNQAKDKVSLRNKIVKTLVRDLSGSANAMEEEVIAAETEKRMEVLKEGCEGNSTLLLELEKLKSAALCGRR
Consider B1, for which the binding entry in test [1] was “no binding”.

B2: nYFP-IYO (Arabidopsis MINIYO fused to the N-terminal half of YFP) (protein, UniProt Q8GYU3 1-1465)
chain: MEQSSGRVNPEQPNNVLASLVGSIVEKGISENKPPSKPLPPRPSLLSFPVARHRSHGPHLAPVGSSIAQPKDYNDDQEEEEAEERFMNADSIAAFAKPLQRKEKKDMDLGRWKDMVSGDDPASTHVPQQSRKLKIIETRPPYVASADAATTSSNTLLAARASDQREFVSDKAPFIKNLGTKERVPLNASPPLAVSNGLGTRHASSSLESDIDVENHAKLQTMSPDEIAEAQAELLDKMDPALLSILKKRGEAKLKKRKHSVQGVSITDETAKNSRTEGHFVTPKVMAIPKEKSVVQKPGIAQGFVWDAWTERVEAARDLRFSFDGNVVEEDVVSPAETGGKWSGVESAAERDFLRTEGDPGAAGYTIKEAIALARSVIPGQRCLALHLLASVLDKALNKLCQSRIGYAREEKDKSTDWEAIWAYALGPEPELVLALRMALDDNHASVVIACVKVIQCLLSCSLNENFFNILENMGPHGKDIFTASVFRSKPEIDLGFLRGCYWKYSAKPSNIVAFREEILDDGTEDTDTIQKDVFVAGQDVAAGLVRMDILPRIYHLLETEPTAALEDSIISVTIAIARHSPKCTTAILKYPKFVQTIVKRFQLNKRMDVLSSQINSVRLLKVLARYDQSTCMEFVKNGTFNAVTWHLFQFTSSLDSWVKLGKQNCKLSSTLMVEQLRFWKVCIHSGCCVSRFPELFPALCLWLSCPSFEKLREKNLISEFTSVSNEAYLVLEAFAETLPNMYSQNIPRNESGTWDWSYVSPMIDSALSWITLAPQLLKWEKGIESVSVSTTTLLWLYSGVMRTISKVLEKISAEGEEEPLPWLPEFVPKIGLAIIKHKLLSFSVADVSRFGKDSSRCSSFMEYLCFLRERSQDDELALASVNCLHGLTRTIVSIQNLIESARSKMKAPHQVSISTGDESVLANGILAESLAELTSVSCSFRDSVSSEWPIVQSIELHKRGGLAPGVGLGWGASGGGFWSTRVLLAQAGAGLLSLFLNISLSDSQNDQGSVGFMDKVNSALAMCLIAGPRDYLLVERAFEYVLRPHALEHLACCIKSNKKNISFEWECSEGDYHRMSSMLASHFRHRWLQQKGRSIAEEGVSGVRKGTVGLETIHEDGEMSNSSTQDKKSDSSTIEWAHQRMPLPPHWFLSAISAVHSGKTSTGPPESTELLEVAKAGVFFLAGLESSSGFGSLPSPVVSVPLVWKFHALSTVLLVGMDIIEDKNTRNLYNYLQELYGQFLDEARLNHRDTELLRFKSDIHENYSTFLEMVVEQYAAVSYGDVVYGRQVSVYLHQCVEHSVRLSAWTVLSNARVLELLPSLDKCLGEADGYLEPVEENEAVLEAYLKSWTCGALDRAATRGSVAYTLVVHHFSSLVFCNQAKDKVSLRNKIVKTLVRDLSRKRHREGMMLDLLRYKKGSANAMEEEVIAAETEKRMEVLKEGCEGNSTLLLELEKLKSAALCGRR
As to B2, the binding entry in test [2] is “no binding”; in test [1], “binds”; in test [3], “no binding”.

B3: IYO-RFP (protein, UniProt Q8GYU3 1-1465)
chain: B2 chain
As for B3, the binding result is given as “binds” in test [4] and “no binding” in test [5].
